Measurements from PMC3347801.
Results are given in words; binding and its absence hold for the method and conditions named. Binding seen in cells or lysates may run through a third protein. Some entries that bind do so weakly or less than the wild type.

Key:
Assay in all cases: co-IP; lysates of transfected HEK-293T cells (20 mM Tris/HCl pH 7.4, 150 mM NaCl, 1 mM EDTA, 1 % Triton X-100, 20 mM iodoacetamide) immunoprecipitated with anti-E2 serum R646, 2 h at 4 °C, protein A–Sepharose; reducing and non-reducing SDS-PAGE; blot with anti-E1 mAb A4 and anti-E2 mAbs AP33 and ALP98; grades are the estimated amount relative to WT
[1] = molecular target: HCV E2 glycoprotein insertion mutant in531 (hepatitis C virus genotype 1a strain H77c) (UniProt P27958)
[2] = molecular target: HCV E2 glycoprotein insertion mutant in682 (hepatitis C virus genotype 1a strain H77c) (UniProt P27958)
[3] = molecular target: HCV E2 glycoprotein insertion mutant in533 (hepatitis C virus genotype 1a strain H77c) (UniProt P27958)
[4] = molecular target: HCV E2 glycoprotein insertion mutant in456 (hepatitis C virus genotype 1a strain H77c) (UniProt P27958)
[5] = molecular target: HCV E2 glycoprotein insertion mutant in614 (hepatitis C virus genotype 1a strain H77c) (UniProt P27958)
[6] = molecular target: HCV E2 glycoprotein insertion mutant in611 (hepatitis C virus genotype 1a strain H77c) (UniProt P27958)
[7] = molecular target: HCV envelope glycoprotein E2, wild type (genotype 1a strain H77c) (hepatitis C virus genotype 1a strain H77c) (UniProt P27958)
[8] = molecular target: HCV E2 glycoprotein insertion mutant in692 (hepatitis C virus genotype 1a strain H77c) (UniProt P27958)
[9] = molecular target: HCV E2 glycoprotein insertion mutant in408 (hepatitis C virus genotype 1a strain H77c) (UniProt P27958)
[10] = molecular target: HCV E2 glycoprotein insertion mutant in734 (hepatitis C virus genotype 1a strain H77c) (UniProt P27958)
[11] = molecular target: HCV E2 glycoprotein insertion mutant in587 (hepatitis C virus genotype 1a strain H77c) (UniProt P27958)

Measured: binding

HCV envelope glycoprotein E1, wild type (genotype 1a strain H77c) (from UniProt P27958 192-383)
no binding: [8]
binds: all other assays above
